The other results are listed elsewhere or left out.
Key:
Test in all cases: glycan array binding signal (z-score within array); higher = stronger binding
Conditions in all cases: glycan notation: IUPAC condensed, linker removed
[1] = target: Gal(b1-4)GlcNAc(b1-3)Gal(b1-4)GlcNAc(b1-2)Man(a1-3)[Gal(b1-4)GlcNAc(b1-3)Gal(b1-4)GlcNAc(b1-2)Man(a1-6)]Man(b1-4)GlcNAc(b1-4)[Fuc(a1-6)]GlcNAc
Method in brief: (§1)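 Glycan array data were curated from 3228 arrays in the Consortium for Functional Glycomics database and kept only where the protein sequence was available. Glycan names were converted to IUPAC-condensed notation, and columns mapping to the same glycan were averaged. The binding signal is a within-array Z-score, averaged across arrays of the same protein sequence at different concentrations or buffers and across linkers. Negative Z-scores can be read as non-binding.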

[2] = target: Gal(b1-4)GlcNAc(b1-3)Gal(b1-4)GlcNAc(b1-2)[Gal(b1-4)GlcNAc(b1-3)Gal(b1-4)GlcNAc(b1-6)]Man(a1-6)[Gal(b1-4)GlcNAc(b1-3)Gal(b1-4)GlcNAc(b1-2)Man(a1-3)]Man(b1-4)GlcNAc(b1-4)GlcNAc
Method in brief: as §1

[3] = target: Gal(b1-4)GlcNAc(b1-3)Gal(b1-4)GlcNAc(b1-2)[Gal(b1-4)GlcNAc(b1-3)Gal(b1-4)GlcNAc(b1-6)]Man(a1-6)[Gal(b1-4)GlcNAc(b1-3)Gal(b1-4)GlcNAc(b1-2)Man(a1-3)]Man(b1-4)GlcNAc(b1-4)[Fuc(a1-6)]GlcNAc
Method in brief: as §1

[4] = target: Gal(b1-4)GlcNAc(b1-3)Gal(b1-4)GlcNAc(b1-3)Gal(b1-4)GlcNAc
Method in brief: as §1

[5] = target: Gal(b1-4)GlcNAc(b1-3)Gal(b1-4)GlcNAc(b1-3)Gal(b1-4)GlcNAc(b1-2)Man(a1-3)[Gal(b1-4)GlcNAc(b1-3)Gal(b1-4)GlcNAc(b1-3)Gal(b1-4)GlcNAc(b1-2)Man(a1-6)]Man(b1-4)GlcNAc(b1-4)GlcNAc
Method in brief: as §1

[6] = target: Gal(b1-4)GlcNAc(b1-3)Gal(b1-4)GlcNAc(b1-3)Gal(b1-4)GlcNAc(b1-2)Man(a1-3)[Gal(b1-4)GlcNAc(b1-3)Gal(b1-4)GlcNAc(b1-3)Gal(b1-4)GlcNAc(b1-2)Man(a1-6)]Man(b1-4)GlcNAc(b1-4)[Fuc(a1-6)]GlcNAc
Method in brief: as §1

[7] = target: Gal(b1-4)GlcNAc(b1-3)Gal(b1-4)GlcNAc(b1-3)Gal(b1-4)GlcNAc(b1-2)[Gal(b1-4)GlcNAc(b1-3)Gal(b1-4)GlcNAc(b1-3)Gal(b1-4)GlcNAc(b1-6)]Man(a1-6)[Gal(b1-4)GlcNAc(b1-3)Gal(b1-4)GlcNAc(b1-3)Gal(b1-4)GlcNAc(b1-2)Man(a1-3)]Man(b1-4)GlcNAc(b1-4)[Fuc(a1-6)]GlcNAc
Method in brief: as §1

[8] = target: Gal(b1-4)GlcNAc(b1-3)Gal(b1-4)GlcNAc(b1-3)Gal(b1-4)GlcNAc(b1-3)Gal(b1-4)GlcNAc(b1-2)Man(a1-3)[Gal(b1-4)GlcNAc(b1-3)Gal(b1-4)GlcNAc(b1-3)Gal(b1-4)GlcNAc(b1-3)Gal(b1-4)GlcNAc(b1-2)Man(a1-6)]Man(b1-4)GlcNAc(b1-4)GlcNAc
Method in brief: as §1

[9] = target: Gal(b1-4)GlcNAc(b1-3)Gal(b1-4)GlcNAc(b1-3)Gal(b1-4)GlcNAc(b1-3)Gal(b1-4)GlcNAc(b1-2)Man(a1-3)[Gal(b1-4)GlcNAc(b1-3)Gal(b1-4)GlcNAc(b1-3)Gal(b1-4)GlcNAc(b1-3)Gal(b1-4)GlcNAc(b1-2)Man(a1-6)]Man(b1-4)GlcNAc(b1-4)[Fuc(a1-6)]GlcNAc
Method in brief: as §1

[10] = target: Gal(b1-4)GlcNAc(b1-3)Gal(b1-4)GlcNAc(b1-3)Gal(b1-4)GlcNAc(b1-3)Gal(b1-4)GlcNAc(b1-2)[Gal(b1-4)GlcNAc(b1-3)Gal(b1-4)GlcNAc(b1-3)Gal(b1-4)GlcNAc(b1-3)Gal(b1-4)GlcNAc(b1-6)]Man(a1-6)[Gal(b1-4)GlcNAc(b1-3)Gal(b1-4)GlcNAc(b1-3)Gal(b1-4)GlcNAc(b1-3)Gal(b1-4)GlcNAc(b1-2)Man(a1-3)]Man(b1-4)GlcNAc(b1-4)[Fuc(a1-6)]GlcNAc
Method in brief: as §1

[11] = target: Gal(b1-4)GlcNAc(b1-3)Gal(b1-4)GlcNAc(b1-3)Gal(b1-4)GlcNAc(b1-3)Gal(b1-4)GlcNAc(b1-3)Gal(b1-4)GlcNAc(b1-2)Man(a1-3)[Gal(b1-4)GlcNAc(b1-3)Gal(b1-4)GlcNAc(b1-3)Gal(b1-4)GlcNAc(b1-3)Gal(b1-4)GlcNAc(b1-3)Gal(b1-4)GlcNAc(b1-2)Man(a1-6)]Man(b1-4)GlcNAc(b1-4)GlcNAc
Method in brief: as §1

[12] = target: Gal(b1-4)GlcNAc(b1-3)Gal(b1-4)GlcNAc(b1-3)Gal(b1-4)GlcNAc(b1-3)Gal(b1-4)GlcNAc(b1-3)Gal(b1-4)GlcNAc(b1-2)Man(a1-3)[Gal(b1-4)GlcNAc(b1-3)Gal(b1-4)GlcNAc(b1-3)Gal(b1-4)GlcNAc(b1-3)Gal(b1-4)GlcNAc(b1-3)Gal(b1-4)GlcNAc(b1-2)Man(a1-6)]Man(b1-4)GlcNAc(b1-4)[Fuc(a1-6)]GlcNAc
Method in brief: as §1

[13] = target: Gal(b1-4)GlcNAc(b1-3)Gal(b1-4)GlcNAc(b1-3)Gal(b1-4)GlcNAc(b1-3)Gal(b1-4)GlcNAc(b1-3)Gal(b1-4)GlcNAc(b1-2)[Gal(b1-4)GlcNAc(b1-3)Gal(b1-4)GlcNAc(b1-3)Gal(b1-4)GlcNAc(b1-3)Gal(b1-4)GlcNAc(b1-3)Gal(b1-4)GlcNAc(b1-6)]Man(a1-6)[Gal(b1-4)GlcNAc(b1-3)Gal(b1-4)GlcNAc(b1-3)Gal(b1-4)GlcNAc(b1-3)Gal(b1-4)GlcNAc(b1-3)Gal(b1-4)GlcNAc(b1-2)Man(a1-3)]Man(b1-4)GlcNAc(b1-4)[Fuc(a1-6)]GlcNAc
Method in brief: as §1

[14] = target: Gal(b1-4)GlcNAc(b1-3)Gal(b1-4)GlcNAc(b1-3)Gal(b1-4)GlcNAc(b1-3)Gal(b1-4)GlcNAc(b1-3)Gal(b1-4)GlcNAc(b1-3)Gal(b1-4)GlcNAc(b1-2)Man(a1-3)[Gal(b1-4)GlcNAc(b1-3)Gal(b1-4)GlcNAc(b1-3)Gal(b1-4)GlcNAc(b1-3)Gal(b1-4)GlcNAc(b1-3)Gal(b1-4)GlcNAc(b1-3)Gal(b1-4)GlcNAc(b1-2)Man(a1-6)]Man(b1-4)GlcNAc(b1-4)GlcNAc
Method in brief: as §1

[15] = target: Gal(b1-4)GlcNAc(b1-3)Gal(b1-4)GlcNAc(b1-3)GalNAc
Method in brief: as §1

[16] = target: Gal(b1-4)GlcNAc(b1-3)Gal(b1-4)GlcNAc(b1-3)[Gal(b1-4)GlcNAc(b1-3)Gal(b1-4)GlcNAc(b1-6)]GalNAc
Method in brief: as §1

[17] = target: Gal(b1-4)GlcNAc(b1-3)Gal(b1-4)GlcNAc(b1-6)[Gal(b1-3)]GalNAc
Method in brief: as §1

[18] = target: Gal(b1-4)GlcNAc(b1-3)Gal(b1-4)[Fuc(a1-3)]GlcNAc(b1-3)Gal(b1-4)[Fuc(a1-3)]GlcNAc
Method in brief: as §1

[19] = target: Gal(b1-4)GlcNAc(b1-3)GalNAc
Method in brief: as §1

[20] = target: Gal(b1-4)GlcNAc(b1-3)[Fuc(a1-3)GlcNAc(b1-6)]Gal(b1-4)Glc
Method in brief: as §1

[21] = target: Gal(b1-4)GlcNAc(b1-3)[Gal(b1-4)GlcNAc(b1-6)]Gal(b1-4)GlcNAc
Method in brief: as §1

[22] = target: Gal(b1-4)GlcNAc(b1-3)[GlcNAc(b1-6)]Gal(b1-4)GlcNAc
Method in brief: as §1

[23] = target: Gal(b1-4)GlcNAc(b1-6)Gal(b1-4)GlcNAc
Method in brief: as §1

[24] = target: Gal(b1-4)GlcNAc(b1-6)GalNAc
Method in brief: as §1

[25] = target: Gal(b1-4)GlcNAc(b1-6)[Gal(b1-3)]GalNAc
Method in brief: as §1

[26] = target: Gal(b1-4)GlcNAc(b1-6)[Gal(b1-4)GlcNAc(b1-3)]GalNAc
Method in brief: as §1

Gal(b1-4)GlcNAc6P = target: Gal(b1-4)GlcNAc6P
Method in brief: as §1

Gal(b1-6)Gal = target: Gal(b1-6)Gal
Method in brief: as §1

Gal3S(b1-3)GalNAc = target: Gal3S(b1-3)GalNAc
Method in brief: as §1

Gal3S(b1-3)GlcNAc = target: Gal3S(b1-3)GlcNAc
Method in brief: as §1

B1: Di AAL2 (Agrocybe aegerita) (protein)
chain: MTSNVITQDLPIPVASRGFADIVGFGLDGVVIGRNAVNLQPFLAVKNFAQNAGGWLTTKHVRLIADTTGTGKGDIVGFGNAGVYVSVNNGKNTFADPPKMVIANFGYDAGGWRVEKHLRYLADIRKIGRADIIGFGEKGVLVSRNNGGLNFGPATLVLKDFGYDAGGWRLDRHLRFLADVTGNGHLDIVGFGDKHVFISRNNGDGTFAPAKSVIDNFCIDAGGWKIGDHPRFVADLTGDGTADIIGCGKAGCWVALNNGGGVFGQVKLVINDFGTDKGWQAAKHPRFIADLTGNGRGDVVGFGNAGVYVALNNGDGTFQSAKLVLKDFGVQQGWTVSKHRRFVVDLTGDGCADIIGFGEKETLVSYNDGKGNFGPVKALTNDFSFSGGKWAPETTVCWMANLDSSRHPAPAPMTSNVITQDLPIPVASRGFADIVGFGLDGVVIGRNAVNLQPFLAVKNFAQNAGGWLTTKHVRLIADTTGTGKGDIVGFGNAGVYVSVNNGKNTFADPPKMVIANFGYDAGGWRVEKHLRYLADIRKIGRADIIGFGEKGVLVSRNNGGLNFGPATLVLKDFGYDAGGWRLDRHLRFLADVTGNGHLDIVGFGDKHVFISRNNGDGTFAPAKSVIDNFCIDAGGWKIGDHPRFVADLTGDGTADIIGCGKAGCWVALNNGGGVFGQVKLVINDFGTDKGWQAAKHPRFIADLTGNGRGDVVGFGNAGVYVALNNGDGTFQSAKLVLKDFGVQQGWTVSKHRRFVVDLTGDGCADIIGFGEKETLVSYNDGKGNFGPVKALTNDFSFSGGKWAPETTVCWMANLDSSRH
[1]
  glycan array binding signal (z-score): 0.002
[2]
  glycan array binding signal (z-score): -0.28
[3]
  glycan array binding signal (z-score): -0.1
[4]
  glycan array binding signal (z-score): -0.303
[5]
  glycan array binding signal (z-score): 0.016
[6]
  glycan array binding signal (z-score): -0.209
[7]
  glycan array binding signal (z-score): -0.178
[8]
  glycan array binding signal (z-score): -0.095
[9]
  glycan array binding signal (z-score): -0.284
[10]
  glycan array binding signal (z-score): -0.141
[11]
  glycan array binding signal (z-score): -0.242
[12]
  glycan array binding signal (z-score): -0.282
[13]
  glycan array binding signal (z-score): -0.077
[14]
  glycan array binding signal (z-score): -0.063
[15]
  glycan array binding signal (z-score): 0.462
[16]
  glycan array binding signal (z-score): -0.255
[17]
  glycan array binding signal (z-score): -0.295
[18]
  glycan array binding signal (z-score): -0.256
[19]
  glycan array binding signal (z-score): -0.328
[20]
  glycan array binding signal (z-score): -0.319
[21]
  glycan array binding signal (z-score): -0.325
[22]
  glycan array binding signal (z-score): -0.273
[23]
  glycan array binding signal (z-score): -0.332
[24]
  glycan array binding signal (z-score): -0.311
[25]
  glycan array binding signal (z-score): -0.307
[26]
  glycan array binding signal (z-score): -0.313
Gal(b1-4)GlcNAc6P
  glycan array binding signal (z-score): -0.327
Gal(b1-6)Gal
  glycan array binding signal (z-score): -0.322
Gal3S(b1-3)GalNAc
  glycan array binding signal (z-score): -0.334
Gal3S(b1-3)GlcNAc
  glycan array binding signal (z-score): -0.341
